{"source": "paper PMC12605009", "target": "PANA_2924 C-terminal domain after TEV cleavage of the His tag (Pantoea ananatis LMG 20103) (UniProt D4GKQ2)", "experiment": "SEC; complex after IMAC and TEV cleavage on Superdex 75 Increase 10/300 GL, 20 mM Tris-HCl pH 8.5, 150 mM NaCl, 1 mM TCEP; mass from a calibration curve"}
{"substance": "PANA_2923 immunity protein, untagged (natural protein)", "values": [{"measurement": "stoichiometry N", "result": 1}]}
